Measurements: PubChem BioAssay AID686978 (National Center for Advancing Translational Sciences (NCATS), 2013)
The whole screen tested about 420,000 compounds, of which about 64,000 (15%) were called active. The shares of active, inactive and inconclusive entries below differ from those in the screen. Calls follow the shape of the dose curve; as a rule, active = well fitted inhibition curve with a large enough effect; inconclusive = small, poorly fitted or top-dose-only effect; inactive = flat fitted curve, though single readings scatter. Potencies of inconclusive entries are left out as doubtful fits.
% is scaled to controls: 0 for no effect and ±100 for the full control effect; potency is read from the fitted curve at half-maximal effect; tags tell the direction and shape of the fitted curve.

Assay: qHTS for Inhibitors of human tyrosyl-DNA phosphodiesterase 1 (TDP1): qHTS in cells in absence of CPT; also: nearly all actives have a fitted effect of over 55% in size
Details: DT40 Tdp1-/- hTDP1 cells, no CPT, ATP luminescence, 48 h; activity change, negative = growth inhibition: at 46.2 µM (top of the series) unless noted
Outline: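 Readout: luminescence from CellTiter-Glo after 30 min in the dark at RT. Cells: DT40 Tdp1-/- with stable hTDP1, 400/well. Exposure: compounds alone, ≥48 hr, 37 °C.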
In the case of Cc1cccc(NC(=O)c2ccc3nccnc3c2)c1C, the Potency was inconclusive [inhibitor, partial curve]. With CCOCCCNC(=O)C(c1ccc(C)cc1)N(Cc1ccc2c(c1)OCO2)C(=O)c1ccc(NC(C)=O)cc1 (stereo not given) the Potency was inconclusive [inhibitor, single point]. For Cc1ccc2nc(N3CCC(C(=O)N4CCN(c5cccc(Cl)c5)CC4)CC3)[nH]c2c1, the Potency was active: 8.2 µM. With CC(C)CCOC(=O)c1ccc(N(C)C)cc1 the Potency was inconclusive [inhibitor, single point]. For O=C(CC(c1ccccc1)c1ccccc1)Nc1ccc(Cl)cn1, the Potency was active: 18.4 µM. For Cc1nn(Cc2ccccc2Cl)c(C)c1NC(=O)/C=C/c1cnn(C)c1, the Potency was inconclusive [inhibitor, partial curve]. For O=C1CC2CC1C(C(=O)O)C2C(=O)O (stereo not given), the “activity change, negative = growth inhibition” value was inactive: 5.47%. For COc1cccc(-c2cc3nc(NCc4cccnc4)n(C)c(=O)c3s2)c1, the Potency was inconclusive [inhibitor, single point]. With Cc1nc(C)c(C(=O)N2CCCC(C(=O)c3ccc4ccccc4c3)C2)s1 (stereo not given) the Potency was active: 32.6 µM. With Cc1cc(C(=O)Nc2ccccc2C(=O)O)ccc1NC(=O)COc1ccccc1Cl the activity change, negative = growth inhibition was inconclusive: -34.2% [inhibitor]. With CCN(CC)c1ccc(/C=N/NC(=O)c2ccoc2C)c(O)c1 the Potency was active: 3.26 µM. In the case of C[C@H]1CN=C(N(C)C)N1CC1CCCC1, the “activity change, negative = growth inhibition” value was inactive: -19.3%. For Cc1ccc(C2c3[nH]c4ccccc4c3CCN2C(=O)c2cccc(C)c2)cc1 (stereo not given), the Potency was active: 18.4 µM. With CC(C)Nc1ccc(-c2nc(-c3ccco3)no2)cc1[N+](=O)[O-] the Potency was active: 16.4 µM. In the case of Cc1cccc(OCC(=O)Nc2ccc(Cl)c(-c3nc4ncccc4o3)c2)c1C, the Potency was active: 16.4 µM. With O=C(CN1CCN(Cc2ccccc2)CC1)Nc1ccc(F)c(F)c1 the Potency was inconclusive [inhibitor, single point]. In the case of CCOP(=O)(c1ccccc1)c1nc(-c2ccccc2C)oc1N1CCCCC1 (stereo not given), the Potency was active: 13 µM. With COc1cccc(CN(C)C(=O)c2ccc(N3CCCC3)c([N+](=O)[O-])c2)c1 the Potency was active: 23.1 µM. With Cn1c(CNc2ccccc2)nc2ccccc21 the “activity change, negative = growth inhibition” value was inactive: -25.8%. For CCCC(C(=O)n1nc(C)cc1C)C(NS(=O)(=O)c1ccc(C)cc1)c1ccccc1 (stereo not given), the Potency was active: 23.1 µM. With CCOC(=O)/C=C1\SCC(=O)N1CC(O)CN1C(=O)CS/C1=C/C(=O)OCC (stereo not given) the “activity change, negative = growth inhibition” value was inactive: -9.41%. In the case of CCCCCCCCN1C(=O)[C@H](CC(=O)N2CCC(c3ccccc3)CC2)C[C@@]2(C(=O)OC)CC(C)(C)CC=C12, the Potency was active: 16.4 µM. In the case of Cc1ccccc1C(=O)NCCCCc1ccccc1, the “activity change, negative = growth inhibition” value was inactive: -30.5%. With O=S(=O)(Nc1nc2c(s1)CCCC2)c1ccc2ccccc2c1 the Potency was inconclusive [inhibitor, partial curve, poor fit]. With O=c1c2ccccc2oc2c1ccc1ccccc12 the Potency was inconclusive [inhibitor, single point]. For OC(c1ccccc1)(c1ccccc1)C1CCN(C(=S)Nc2ccc(F)cc2)CC1, the activity change, negative = growth inhibition was inconclusive: -30.7% [inhibitor]. For CCOC(=O)c1c(C)[nH]c(CCC(=O)Nc2ccc(C)c(F)c2)c1C, the Potency was active: 14.6 µM. With COc1ccc(C2=Cc3ccc(OC(C)=O)cc3OC2)cc1 the Potency was inconclusive [inhibitor, partial curve]. With Cc1ccccc1-c1noc(-c2ccc(O)cc2)n1 the Potency was inconclusive [inhibitor, partial curve, poor fit]. With O=C(NCC1CCCO1)c1ccccc1NC(=O)c1cccc2ccccc12 (stereo not given) the Potency was inconclusive [inhibitor, single point]. For Cc1cc(C)nc(NC(=O)C(c2ccccc2)c2ccccc2)c1, the Potency was active: 14.6 µM. For CC(=O)N1CCOc2ccc(S(=O)(=O)N(C)c3cccc(C)c3)cc21, the Potency was inconclusive [inhibitor, single point]. In the case of Cc1cccc(NC(=O)c2nnn(CC(=O)Nc3ccc(C(C)C)cc3)c2N)c1C, the Potency was inconclusive [inhibitor, partial curve]. In the case of CCCC[C@@H]1CNC(=O)C(=O)N1CCCC, the “activity change, negative = growth inhibition” value was inactive: -21.9%. For COc1ccc(-c2nnn(CC(=O)N(CC(=O)NC3CCCC3)Cc3ccco3)n2)cc1OC, the “activity change, negative = growth inhibition” value was inactive: -6.08%. For Cc1ccccc1Oc1ccc(-c2nc(N)nc(N)n2)cc1, the Potency was inconclusive [inhibitor, partial curve]. With CCC(Sc1ncnc2c1c(-c1ccccc1)cn2-c1ccc(OC)cc1)C(=O)OC (stereo not given) the Potency was inconclusive [inhibitor, single point]. In the case of COc1cc(/C=C/c2cc(OC(C)=O)c3ccccc3n2)c(OC(C)=O)c([N+](=O)[O-])c1, the Potency was inconclusive [inhibitor, single point]. For CCC(Cc1ccccc1)NC(=O)C1=C(C)C(=O)OC12CCC(C)CC2 (stereo not given), the Potency was inconclusive [inhibitor, partial curve, poor fit]. For COc1cc(NC(=O)C2CCC(CNc3c(N4CCCCC4)c(=O)c3=O)CC2)cc(OC)c1 (stereo not given), the Potency was inconclusive [inhibitor, single point]. With CC(C)C[C@H]1CN=C(N(C)C)N1CCCCc1ccccc1 the Potency was active: 2.59 µM. For O=S(=O)(c1ccccc1)N1CCN(Cc2cccc(Cl)c2)CC1, the Potency was inconclusive [inhibitor, partial curve]. With Cc1cc(=O)oc2cc(OCc3ccc(C(=O)OCC(=O)Nc4ccc(N(C)C)cc4)cc3)ccc12 the “activity change, negative = growth inhibition” value was inactive: -23.4%. With COc1ccc(N(CC(=O)N2CC=C(c3ccccc3)CC2)S(=O)(=O)c2c(C)noc2C)cc1 the Potency was active: 23.1 µM. With O=C(c1cc(-c2ccc(Br)cc2)nc2ccccc12)N1CCN(c2ccccc2O)CC1 the Potency was inconclusive [inhibitor, single point]. With Cc1nc(Oc2ccc(F)cc2Cl)c2oc3ccccc3c2n1 the Potency was inconclusive [inhibitor, single point]. For Cn1nccc1C(=O)Nc1sc2c(c1C(N)=O)CCCC2, the Potency was inconclusive [inhibitor, single point]. With CC(NC(=O)Nc1ccc(Cl)cc1)c1ccccc1 (stereo not given) the Potency was active: 25.9 µM. In the case of CCC(=O)N1CCc2cc(Br)cc(S(=O)(=O)CCC(=O)NCc3ccc(Cl)cc3)c21, the Potency was inconclusive [inhibitor, single point]. For COc1ccc(-c2nc(-c3ccc4c(c3)OCO4)[nH]c2-c2ccc(OC)cc2)cc1, the Potency was inconclusive [inhibitor, single point]. With COc1cc(OC)c(/C=C/c2ccncn2)c(OC)c1 the Potency was inconclusive [inhibitor, single point]. For O=CC(=Cc1ccccc1)c1ccccc1, the activity change, negative = growth inhibition was inconclusive: -34.8% [inhibitor]. In the case of COc1ccccc1C1CCN(Cc2ccc3ccccc3c2)CC1, the Potency was inconclusive [inhibitor, single point]. In the case of FC(F)(F)c1ccccc1-c1nccc(NCc2cccs2)n1, the Potency was inconclusive [inhibitor, single point]. With O=C(Nc1nnc(-c2ccccc2)o1)Nc1ccccc1Cl the Potency was inconclusive [inhibitor, single point]. For Nc1ccc2nn(-c3cccc4ccccc34)nc2c1, the Potency was active: 16.4 µM. For Nc1c(C(=O)NCc2ccc3c(c2)OCO3)nnn1Cc1ccc(Br)cc1, the “activity change, negative = growth inhibition” value was inactive: -8.27%. In the case of CC(C)(C)NC(=O)C[C@H]1C[C@H](C(=O)N2CCOCC2)[C@@]2(CCC3CCCC3)c3[nH]c4ccc(Cl)cc4c3CCN2C1=O, the Potency was active: 16.4 µM. In the case of CCCCN(C)c1c(N2CCC(C(=O)OCC)CC2)c(=O)c1=O, the “activity change, negative = growth inhibition” value was inactive: 3.86%. With CN(C)C(=O)N1CCN(C(=O)c2ccco2)CC1 the “activity change, negative = growth inhibition” value was inactive: 4.91%. With COc1ccc(OC)c(NC(=O)Nc2nc(C(C)N)cs2)c1 (stereo not given) the Potency was inconclusive [inhibitor, partial curve, poor fit]. In the case of CCOc1ccc(S(=O)(=O)N2CCN(Cc3ccco3)CC2)cc1, the Potency was inconclusive [inhibitor, single point]. With COc1cc(C(=O)NNC(=O)c2n[nH]c3ccccc23)cc(OC)c1OC the “activity change, negative = growth inhibition” value was inactive: -2.81%. In the case of Cc1oc2c(C)c3oc(=O)c(CCC(=O)NCCCN4CCOCC4)c(C)c3cc2c1C, the Potency was inconclusive [inhibitor, single point]. In the case of CCOC(=O)C1=C(COC(=O)C(CC)c2ccccc2)NC(=O)NC1C (stereo not given), the “activity change, negative = growth inhibition” value was inactive: -4.37%. For CCc1ccccc1NNC(=O)c1snnc1C, the Potency was inconclusive [inhibitor, single point]. In the case of CCOC(=O)c1cc(CC)sc1NC(=O)c1ccc2c(c1)OCCO2, the Potency was inconclusive [inhibitor, single point]. In the case of CC(=O)N(c1ccccc1)c1ccccc1[N+](=O)[O-], the Potency was active: 25.9 µM. In the case of O=C(COc1ccc(Cl)cc1)Nc1ccccc1Cl, the “activity change, negative = growth inhibition” value was inactive: 8.78%. In the case of CC(C)Oc1ccc(C(=O)N(Cc2ccco2)c2ccccn2)cc1, the Potency was inconclusive [inhibitor, single point]. In the case of CN(Cc1nc(Cc2ccccc2F)no1)CC1(N2CCOCC2)CCCCC1, the Potency was inconclusive [inhibitor, single point]. With Cc1ccccc1Nc1nc(N)nc(COC(=O)c2ccc(O)cc2)n1 the Potency was inconclusive [inhibitor, single point]. For CC1(C(=O)NS(=O)(=O)c2ccc(C#N)cc2)CCN1C(=O)CC1CCCCC1 (stereo not given), the “activity change, negative = growth inhibition” value was inactive: -9.36%. In the case of NC(=O)CSc1n[nH]c(=O)n1CCc1ccccc1, the “activity change, negative = growth inhibition” value was inactive: 0.702%. In the case of Cc1ccc(CNC(=O)CC(C)S(=O)(=O)c2cc3c(cc2C)NC(=O)CO3)cc1 (stereo not given), the Potency was “inactive”.
